Patent US20240358672A1, “APPLICATION OF GENISTEIN AND ITS PHOSPHATE ESTER DERIVATIVE AND PHARMACEUTICAL COMPOSITION COMPRISING THE SAME” (National Taiwan University, priority 2023, published 2024)

Key:
[1] = test system: human embryonic stem cell-derived cardiomyocytes (H7 hESC-CMs); assay: CellTiter-Glo cell viability, cardiomyocytes; settings: increasing concentrations of Δ^9-THC, 48 hours
[2] = test system: normal human cardiac fibroblasts-ventricular (NHCF-V) cells; assay: CellTiter-Glo cell viability, cardiac fibroblasts; settings: increasing concentrations of Δ^9-THC, 48 hours
hiPSC-ECs = assay: Monocyte (U937) adhesion assay on hiPSC-ECs; settings: 10 μM genistein with 5 μM Δ^9-THC, 48 hours

SMILES: CCCCCc1cc(O)c2c(c1)OC(C)(C)[C@@H]1CCC(C)=C[C@@H]21 [Δ^9-THC, Δ^9-tetrahydrocannabinol]
- cytotoxicity (cell viability) [1]: without any adverse effect
- cytotoxicity (cell viability) [2]: without any adverse effect

SMILES: O=c1c(-c2ccc(O)cc2)coc2cc(O)cc(O)c12 [genistein]
- Δ^9-THC-induced monocyte adhesion to hiPSC-ECs (hiPSC-ECs): reversed
